# Experimental data taken from PubChem BioAssay AID887 (National Center for Advancing Translational Sciences (NCATS), 2007).
# About 1,100 (1.5%) of roughly 74,000 compounds were called active. Inconclusive results, whose numbers are uncertain, are shown with a selection of clear calls. Calls come from the whole dose curve; as a rule, active = well fitted inhibition curve with a large enough effect; inconclusive = small, poorly fitted or top-dose-only effect; inactive = no such curve, though single readings can be large or run the other way. No potency is given beside an inconclusive call; the fits are too rough.
# Target: Polyunsaturated fatty acid lipoxygenase ALOX15 (Homo sapiens) (UniProt P16050)
# Chain of UniProt P16050 (P16050 whole entry, looked up): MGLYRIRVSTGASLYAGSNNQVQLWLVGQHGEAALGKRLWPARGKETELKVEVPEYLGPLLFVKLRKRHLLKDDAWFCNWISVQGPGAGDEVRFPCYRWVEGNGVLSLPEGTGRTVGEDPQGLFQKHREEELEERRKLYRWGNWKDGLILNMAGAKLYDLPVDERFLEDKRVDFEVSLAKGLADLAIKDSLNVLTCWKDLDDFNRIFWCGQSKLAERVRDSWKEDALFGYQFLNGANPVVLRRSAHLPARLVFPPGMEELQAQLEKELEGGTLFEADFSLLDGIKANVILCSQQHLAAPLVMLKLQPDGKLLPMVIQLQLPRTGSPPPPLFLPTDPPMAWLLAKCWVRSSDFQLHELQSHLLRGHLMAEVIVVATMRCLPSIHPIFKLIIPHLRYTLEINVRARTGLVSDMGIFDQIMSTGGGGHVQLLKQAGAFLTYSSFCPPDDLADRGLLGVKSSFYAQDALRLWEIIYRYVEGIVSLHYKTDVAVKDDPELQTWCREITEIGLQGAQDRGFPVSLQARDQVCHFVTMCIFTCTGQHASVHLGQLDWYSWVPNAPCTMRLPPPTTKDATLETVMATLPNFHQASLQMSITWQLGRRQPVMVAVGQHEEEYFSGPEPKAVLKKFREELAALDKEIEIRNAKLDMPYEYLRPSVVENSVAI
# Test: qHTS Assay for Inhibitors of 15-hLO (15-human lipoxygenase); note: nearly all actives have a fitted effect of over 55% in size
# Conditions: purified 15hLO-1, xylenol orange hydroperoxide absorbance; activity change, negative = inhibition: at 57.1 µM (top of the series) unless noted
# Outline: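 Purified human 15hLO-1 (40 nM) in 25 mM Hepes pH 7.5, 0.01% Triton X-100, preincubated 15 min RT with compound, then 50 uM arachidonic acid for 6 min. Hydroperoxide read by ferrous/xylenol orange, 30 min; 573/405 nm absorbance ratio gave progress.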
# % is set by controls: 0 for no effect and ±100 for the full control effect; potency is the fitted concentration of half-maximal effect; tags give direction and shape of the fitted curve.
SMILES,Potency,"activity change, negative = inhibition"
COc1ccc(C(=O)N2CCC3(CCCN(CC(C)C)C3)CC2)cc1,inactive,
Cc1ccc2[nH]c(=O)c(CN(Cc3cccs3)Cc3nnnn3Cc3ccccc3)cc2c1,"inconclusive [inhibitor, partial curve]",
O=C(O)CCCNc1cc(N2CCC3(CC2)OCCO3)c2noc3c2c1C(=O)c1ccccc1-3,"inconclusive [inhibitor, full curve, poor fit]",
Cc1nnc(Nc2ccc3c(c2)OCO3)c2ccccc12,"inconclusive [inhibitor, single point]",
COCCCNC(=O)c1ccc(N2CCCC2)c(NS(=O)(=O)c2ccc(C)cc2)c1,"inconclusive [inhibitor, single point]",
NCCOc1ccccn1,,inactive: -0.856% [at 11.4 µM]
c1cncc(-c2cc(NCc3cccs3)ncn2)c1,active: 25.1 µM,
CN1CCc2c(sc3c2c(NCc2ccco2)nc2nnnn23)C1,"inconclusive [inhibitor, partial curve]",
CC[C@H](NC(C)C)[C@H](O)c1ccc(O)c(O)c1,inactive,
CC1(C)S[C@@H]2[C@H](NC(=O)[C@@H](N)c3ccc(O)cc3)C(=O)N2[C@H]1C(=O)O,inactive,
Cc1cc(O)c(C(C)(C)C)cc1Sc1cc(C(C)(C)C)c(O)cc1C,"inconclusive [inhibitor, partial curve]",
Nc1nc(-c2cccnc2)cc(-c2cc(-c3cccnc3)nc(N)n2)n1,,inactive: 5.53% [at 11.4 µM]
CCOc1cc2c(C#N)c(N3CCOCC3)nc(N)c2c(N)n1,inactive,
Cc1cnc(NC(=O)CCCSc2nc3ccccc3s2)s1,inactive,
CCn1c(C(=O)N2CCCC(C(=O)NCCc3ccc(C)cc3)C2)cc2sccc21 (stereo unspecified),inactive,
CCOC(=O)c1c(N)sc(C(N)=O)c1C,"inconclusive [inhibitor, single point]",
COc1ccc2c3c(cccc13)NN=C2C,active: 12.6 µM,
CCOc1cc(C2CC(=O)N3CN(C4CCCCC4)CSC3=C2C#N)ccc1O (stereo unspecified),"inconclusive [inhibitor, partial curve]",
CCN1CC=C2C(C#N)=C(N)C(C#N)(C#N)C(CCc3ccccc3)C2C1 (stereo unspecified),"inconclusive [inhibitor, partial curve]",
CSCC[C@@H](C(=O)O)N1Cc2ccccc2C1=O,"inconclusive [inhibitor, partial curve]",
N#Cc1ccc(COc2ccc(CCO)cc2-n2nc3ccccc3n2)cc1,"inconclusive [inhibitor, full curve, poor fit]",
